# Assay results: the BET-seq Pho4 binding data (Le et al. 2018)
# This is one part of the list. Values were computed here from the reads of four pooled replicates and scatter widely.
# Biological target: T1, Pho4 (S. cerevisiae) (UniProt P07270)
# T1 sequence: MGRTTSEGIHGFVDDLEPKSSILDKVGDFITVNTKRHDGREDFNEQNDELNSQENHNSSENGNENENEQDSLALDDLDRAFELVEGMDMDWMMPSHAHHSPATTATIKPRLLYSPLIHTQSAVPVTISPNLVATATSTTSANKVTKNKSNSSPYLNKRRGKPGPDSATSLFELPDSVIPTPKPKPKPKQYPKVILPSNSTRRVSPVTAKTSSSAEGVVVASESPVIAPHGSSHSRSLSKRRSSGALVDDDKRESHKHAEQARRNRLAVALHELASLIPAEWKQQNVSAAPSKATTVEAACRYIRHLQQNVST
# Test: relative binding free energy (BET-seq); higher = weaker binding
# Conditions: reference: library average
row,Sequence,relative binding free energy
1,TGGTTCACGTGTTCTC,0.27 kcal/mol
2,AGGTACACGTGTGTTA,0.05 kcal/mol
3,TCCTACACGTGGGGGT,-0.08 kcal/mol
4,GAGATCACGTGGTTGA,0.13 kcal/mol
5,ATGGGCACGTGTTGAC,-0.14 kcal/mol
6,CCTGTCACGTGGGATT,0.07 kcal/mol
7,CTTTGCACGTGGTGTG,-0.04 kcal/mol
8,AGAATCACGTGCGGGT,0.17 kcal/mol
9,GGTTACACGTGGACGG,0.16 kcal/mol
10,TCGGACACGTGTTCGG,0.15 kcal/mol
11,TGTATCACGTGGTGGG,0.09 kcal/mol
12,TTCAGCACGTGATTGT,0.12 kcal/mol
13,ATTTGCACGTGCGCTG,-0.03 kcal/mol
14,CTTGGCACGTGGTAGG,-0.16 kcal/mol
15,GCAGTCACGTGGTAGG,0.21 kcal/mol
16,CAGGGCACGTGCGGGG,-0.22 kcal/mol
17,GTGTACACGTGTCTTG,0 kcal/mol
18,ATAGGCACGTGTGTTA,0.01 kcal/mol
19,TTCTTCACGTGGCGGG,0.28 kcal/mol
20,GGAGACACGTGTGGCG,0.1 kcal/mol
21,TGTTGCACGTGTCCTT,0.1 kcal/mol
22,AAGAACACGTGTTGTT,0.05 kcal/mol
23,GTGGCCACGTGGAAGT,0.04 kcal/mol

row,Sequence,relative binding free energy
1,GTGGGCACGTGTGCAA,-0.12 kcal/mol
2,TTACCCACGTGTGGTT,-0.02 kcal/mol
3,ATTGACACGTGGTTCG,-0.05 kcal/mol
4,TTAGGCACGTGGTTTA,-0.22 kcal/mol
5,CAATACACGTGTGTTT,0.04 kcal/mol
6,TTCTGCACGTGGCTTG,-0.15 kcal/mol
7,GTGTTCACGTGTACAT,0.16 kcal/mol
8,GTTTTCACGTGGTGCT,0.4 kcal/mol
9,AAGTACACGTGTTATT,-0.01 kcal/mol
10,GAGGGCACGTGCGAGG,-0.09 kcal/mol
11,GTGGACACGTGTCGTG,0 kcal/mol
12,AGATGCACGTGGCGGG,-0.08 kcal/mol
13,TGACACACGTGTAGGG,-0.01 kcal/mol
14,AGTAGCACGTGGATTA,-0.04 kcal/mol
15,GCGGGCACGTGTGATG,-0.03 kcal/mol
16,GATTGCACGTGAGTAA,0.3 kcal/mol
17,ATAATCACGTGAGATT,0.35 kcal/mol
18,ATGGACACGTGTTGCG,-0.11 kcal/mol
19,AGGAACACGTGGTAAG,0.06 kcal/mol
20,TTTTTCACGTGGCCTA,0.2 kcal/mol
21,CGAGGCACGTGGGTGT,-0.24 kcal/mol
22,GGGAGCACGTGGGATA,-0.12 kcal/mol
23,GTTGACACGTGTAAGG,0.16 kcal/mol

row,Sequence,relative binding free energy
1,TCAGTCACGTGAGGTA,0.3 kcal/mol
2,CGTAGCACGTGGGTAA,-0.17 kcal/mol
3,TGGTTCACGTGAAGTC,0.34 kcal/mol
4,GTGTGCACGTGGAGCA,0.05 kcal/mol
5,TGTGTCACGTGTTGTA,0.06 kcal/mol
6,GCAGGCACGTGGTGAG,-0.19 kcal/mol
7,GAGGCCACGTGGGGAG,-0.05 kcal/mol
8,ATAGGCACGTGGGCGG,-0.26 kcal/mol
9,TTTTTCACGTGTTCCT,0.36 kcal/mol
10,AATTACACGTGGTGTG,-0.1 kcal/mol
11,GACGGCACGTGGTGGA,-0.14 kcal/mol
12,TGGATCACGTGGCGTG,0.08 kcal/mol
13,CGGGTCACGTGTTGAG,0.13 kcal/mol
14,GAGTTCACGTGTTCTT,0.56 kcal/mol
15,GGTTGCACGTGTGGGA,0.1 kcal/mol
16,TTTAGCACGTGATTTC,0.03 kcal/mol
17,AAAAACACGTGTTGGA,0.06 kcal/mol
18,GGTTGCACGTGGTACA,-0.14 kcal/mol
19,TCGTTCACGTGATGTG,0.35 kcal/mol
20,CAGGTCACGTGTAGGT,0.13 kcal/mol
21,TAAGCCACGTGTTTGT,-0.14 kcal/mol
22,CAGGTCACGTGTTGTA,0.11 kcal/mol
23,AGGTTCACGTGCGGGG,0.21 kcal/mol

row,Sequence,relative binding free energy
1,TAATTCACGTGAGTAA,0.49 kcal/mol
2,AGTACCACGTGTTGTT,-0.12 kcal/mol
3,CTGGGCACGTGTGATT,-0.06 kcal/mol
4,GGCGGCACGTGTGTTG,0.08 kcal/mol
5,GTGTTCACGTGCACGT,0.18 kcal/mol
6,AGTTTCACGTGGGTTG,0.3 kcal/mol
7,GTGCTCACGTGAATTT,0.51 kcal/mol
8,GGTTTCACGTGGGAAC,0.21 kcal/mol
9,TGGTCCACGTGAGTAA,0.39 kcal/mol
10,AGCGACACGTGGGGAG,-0.08 kcal/mol
11,TGTCACACGTGGGTTT,0.01 kcal/mol
12,GGGATCACGTGTTACT,0.2 kcal/mol
13,ATCTGCACGTGGCGGG,-0.1 kcal/mol
14,TCTTGCACGTGTTGGT,0.04 kcal/mol
15,TGTCCCACGTGTGGTT,-0.13 kcal/mol
16,CACGGCACGTGTTGGG,-0.07 kcal/mol
17,GGGGGCACGTGTCGTA,-0.1 kcal/mol
18,GTGATCACGTGGTGGC,0.07 kcal/mol
19,TTGGTCACGTGATTGG,0.15 kcal/mol
20,AAATGCACGTGATGTT,0.17 kcal/mol
21,AGCGGCACGTGGGCGA,-0.27 kcal/mol
22,ATGGGCACGTGGTCGC,-0.17 kcal/mol
23,CTGTACACGTGAGCGT,0.26 kcal/mol

row,Sequence,relative binding free energy
1,TTGCACACGTGTCGTG,0.1 kcal/mol
2,TTGTGCACGTGAGATT,0.32 kcal/mol
3,AGCGACACGTGGTTTG,-0.05 kcal/mol
4,TGTATCACGTGATTTC,0.26 kcal/mol
5,AGTTGCACGTGAGGAT,0.22 kcal/mol
6,TCTTGCACGTGTGCGG,0.05 kcal/mol
7,TGTGGCACGTGTCTGA,-0.04 kcal/mol
8,CGTATCACGTGATGTA,0.13 kcal/mol
9,GAGTTCACGTGGGTCT,0.3 kcal/mol
10,GGGGTCACGTGCGGGC,0.18 kcal/mol
11,ATGACCACGTGGGTTG,-0.13 kcal/mol
12,AGTATCACGTGGACGG,0.06 kcal/mol
13,TATGGCACGTGGCATT,-0.14 kcal/mol
14,CGCGGCACGTGTGGGG,-0.09 kcal/mol
15,TAAGTCACGTGGCTTT,0.06 kcal/mol
16,GAGGTCACGTGATAGA,0.35 kcal/mol
17,TCGATCACGTGTGGGT,0.16 kcal/mol
18,GCTGGCACGTGTTTTG,-0.13 kcal/mol
19,GGGTCCACGTGCTGTG,0 kcal/mol
20,ATCTACACGTGGTGTG,0.03 kcal/mol
21,TGGTACACGTGTTAGT,0.01 kcal/mol
22,GATGTCACGTGGGATT,0.05 kcal/mol
23,TTGTACACGTGTGGCA,0.06 kcal/mol
